MIC of N. gonorrhoeae strains collected 1971-2005, agar dilution (CLSI M07); ranges 0.03-64 mg/L (penicillin, azithromycin), 0.015-1 (cefixime, ceftriaxone), 0.5-256 (spectinomycin); higher = less susceptible. No active / inactive call per row; the paper counts cefixime and ceftriaxone above 0.25 and azithromycin above 1 mg/L as non-susceptible. The source says 'penicillin'; penicillin G is assumed. Isolates are numbered anew.
Columns and labels:
Assay in all cases: Agar dilution by CLSI M07.
[1] = compound: CO/N=C(\C(=O)N[C@@H]1C(=O)N2C(C(=O)O)=C(CSc3nc(=O)c(O)nn3C)CS[C@H]12)c1csc(N)n1 [ceftriaxone]
[2] = compound: C=CC1=C(C(=O)O)N2C(=O)[C@@H](NC(=O)/C(=N\OCC(=O)O)c3csc(N)n3)[C@H]2SC1 [cefixime]
[3] = compound: CC[C@H]1OC(=O)[C@H](C)[C@@H](O[C@H]2C[C@@](C)(OC)[C@@H](O)[C@H](C)O2)[C@H](C)[C@@H](O[C@@H]2O[C@H](C)C[C@H](N(C)C)[C@H]2O)[C@](C)(O)C[C@@H](C)CN(C)[C@H](C)[C@@H](O)[C@]1(C)O [azithromycin]
[4] = compound: CN[C@@H]1[C@H](O)[C@H](NC)[C@H]2O[C@@]3(O)C(=O)C[C@@H](C)O[C@H]3O[C@@H]2[C@H]1O [spectinomycin]
[5] = compound: CC1(C)S[C@@H]2[C@H](NC(=O)Cc3ccccc3)C(=O)N2[C@H]1C(=O)O [penicillin G]

Work on “Neisseria gonorrhoeae isolate 222 (GyrA: Wild type, ParC: Wild type, mtrR: -35A Del, G45D, penA: Type XXII NonMosaic, A517G, ponA: L421P, porB: Wild type)” yielded an MIC [1] of at most 0.015 µg/mL, an MIC [2] of at most 0.015 µg/mL and an MIC [3] of at most 0.03 µg/mL. For the same test system, the MIC [4] was 16 µg/mL and the MIC [5] was 0.25 µg/mL.

Test System “Neisseria gonorrhoeae isolate 223 (GyrA: S91F, ParC: Wild type, mtrR: G45D, penA: Type IV NonMosaic, A517G, G543S, ponA: L421P, porB: G120K, A121D)” has an MIC [1] of 0.03 µg/mL, an MIC [2] of 0.03 µg/mL and an MIC [3] of 0.125 µg/mL. The MIC [4] was 16 µg/mL and the MIC [5] was 1 µg/mL.

Test System “Neisseria gonorrhoeae isolate 224 (GyrA: Wild type, ParC: Wild type, mtrR: -35A Del, penA: Type II NonMosaic, A517G, ponA: Wild type, porB: Wild type)” has an MIC [1] of at most 0.015 µg/mL, an MIC [2] of at most 0.015 µg/mL and an MIC [3] of at most 0.03 µg/mL. It also gave an MIC [4] of 16 µg/mL and an MIC [5] of 0.125 µg/mL.

“Neisseria gonorrhoeae isolate 225 (GyrA: Wild type, ParC: Wild type, mtrR: -35A Del, G45D, penA: Type IV NonMosaic, A517G, G543S, ponA: L421P, porB: G120K, A121D)” was tested, and the MIC [1] was 0.06 µg/mL, the MIC [2] was 0.06 µg/mL and the MIC [3] was 0.06 µg/mL. It also gave an MIC [4] of 16 µg/mL and an MIC [5] of 2 µg/mL.

Work on “Neisseria gonorrhoeae isolate 226 (GyrA: Wild type, ParC: Wild type, mtrR: Wild type, penA: Type I NonMosaic, ponA: Wild type, porB: Wild type)” yielded an MIC [1] of at most 0.015 µg/mL, an MIC [2] of at most 0.015 µg/mL and an MIC [3] of at most 0.03 µg/mL. For the same test system, the MIC [4] was 16 µg/mL and the MIC [5] was 0.06 µg/mL.

In the case of “Neisseria gonorrhoeae isolate 227 (GyrA: Wild type, ParC: Wild type, mtrR: -35A Del, G45D, penA: Type 252 SemiMosaic, A517G, ponA: Wild type, porB: Wild type)”, the MIC [1] is reported as at most 0.015 µg/mL, the MIC [2] is reported as at most 0.015 µg/mL and the MIC [3] is reported as at most 0.03 µg/mL. It also gave an MIC [4] of 16 µg/mL and an MIC [5] of 0.25 µg/mL.

For “Neisseria gonorrhoeae isolate 228 (GyrA: Wild type, ParC: Wild type, mtrR: -35A Del, G45D, penA: Type IV NonMosaic, A517G, G543S, ponA: L421P, porB: G120K, A121D)”, the MIC [1] was at most 0.015 µg/mL, the MIC [2] was at most 0.015 µg/mL and the MIC [3] was at most 0.03 µg/mL. The MIC [4] was 16 µg/mL and the MIC [5] was 0.5 µg/mL.

“Neisseria gonorrhoeae isolate 229 (GyrA: S91F, D95N, ParC: S88P, mtrR: -35A Del, G45D, penA: Type X Mosaic, N513Y, ponA: L421P, porB: G120K, A121D)” gave an MIC [1] of 0.25 µg/mL, an MIC [2] of 0.5 µg/mL and an MIC [3] of 0.5 µg/mL. The MIC [4] was 32 µg/mL and the MIC [5] was 2 µg/mL.

In the case of “Neisseria gonorrhoeae isolate 230 (GyrA: Wild type, ParC: Wild type, mtrR: G45D, penA: Type XXII NonMosaic, A517G, ponA: Wild type, porB: G120D)”, the MIC [1] is reported as 0.03 µg/mL, the MIC [2] is reported as 0.03 µg/mL and the MIC [3] is reported as 0.25 µg/mL. For the same test system, the MIC [4] was 16 µg/mL and the MIC [5] was 0.5 µg/mL.

In the case of “Neisseria gonorrhoeae isolate 231 (GyrA: Wild type, ParC: Wild type, mtrR: G45D, penA: Type I NonMosaic, ponA: Wild type, porB: Wild type)”, the MIC [1] is reported as at most 0.015 µg/mL, the MIC [2] is reported as at most 0.015 µg/mL and the MIC [3] is reported as 0.06 µg/mL. For the same test system, the MIC [4] was 16 µg/mL and the MIC [5] was 0.06 µg/mL.

In the case of “Neisseria gonorrhoeae isolate 232 (GyrA: Wild type, ParC: Wild type, mtrR: -35A Del, penA: Type IX NonMosaic, A517G, ponA: L421P, porB: Wild type)”, the MIC [1] is reported as at most 0.015 µg/mL, the MIC [2] is reported as at most 0.015 µg/mL and the MIC [3] is reported as 0.25 µg/mL. For the same test system, the MIC [4] was 16 µg/mL and the MIC [5] was 1 µg/mL.

“Neisseria gonorrhoeae isolate 233 (GyrA: Wild type, ParC: Wild type, mtrR: -35A Del, G45D, penA: Type IX NonMosaic, A517G, ponA: L421P, porB: G120N, A121G)” was tested, and the MIC [1] was 0.06 µg/mL, the MIC [2] was 0.03 µg/mL and the MIC [3] was 1 µg/mL. For the same test system, the MIC [4] was 32 µg/mL and the MIC [5] was 1 µg/mL.

“Neisseria gonorrhoeae isolate 234 (GyrA: Wild type, ParC: Wild type, mtrR: -35A Del, G45D, penA: Type IV NonMosaic, A517G, G543S, ponA: L421P, porB: G120N, A121D)” showed an MIC [1] of 0.03 µg/mL, an MIC [2] of 0.03 µg/mL and an MIC [3] of 0.5 µg/mL. The MIC [4] was 16 µg/mL and the MIC [5] was 4 µg/mL.

With “Neisseria gonorrhoeae isolate 235 (GyrA: Wild type, ParC: Wild type, mtrR: -35A Del, G45D, penA: Type IV NonMosaic, A517G, G543S, ponA: L421P, porB: Wild type)” the MIC [1] was 0.03 µg/mL, the MIC [2] was 0.03 µg/mL and the MIC [3] was 0.06 µg/mL. The MIC [4] was 16 µg/mL and the MIC [5] was 1 µg/mL.

For “Neisseria gonorrhoeae isolate 236 (GyrA: Wild type, ParC: Wild type, mtrR: -35A Del, G45D, penA: Type XXII NonMosaic, A517G, ponA: L421P, porB: G120D)”, the MIC [1] was at most 0.015 µg/mL, the MIC [2] was at most 0.015 µg/mL and the MIC [3] was at most 0.03 µg/mL. The MIC [4] was 32 µg/mL and the MIC [5] was 0.125 µg/mL.

Work on “Neisseria gonorrhoeae isolate 237 (GyrA: Wild type, ParC: Wild type, mtrR: A39T, penA: Type II NonMosaic, A517G, ponA: Wild type, porB: Wild type)” yielded an MIC [1] of at most 0.015 µg/mL, an MIC [2] of at most 0.015 µg/mL and an MIC [3] of 0.125 µg/mL. For the same test system, the MIC [4] was 16 µg/mL and the MIC [5] was 0.125 µg/mL.

Test System “Neisseria gonorrhoeae isolate 238 (GyrA: Wild type, ParC: Wild type, mtrR: -35A Del, penA: Type XXII NonMosaic, A517G, ponA: L421P, porB: G120K, A121D)” has an MIC [1] of 0.03 µg/mL, an MIC [2] of 0.03 µg/mL and an MIC [3] of 0.25 µg/mL. For the same test system, the MIC [4] was 16 µg/mL and the MIC [5] was over 64 µg/mL.

With “Neisseria gonorrhoeae isolate 239 (GyrA: Wild type, ParC: Wild type, mtrR: -35A Del, G45D, penA: Type II NonMosaic, A517G, ponA: L421P, porB: G120K, A121N)” the MIC [1] was at most 0.015 µg/mL, the MIC [2] was at most 0.015 µg/mL and the MIC [3] was 0.25 µg/mL. It also gave an MIC [4] of 16 µg/mL and an MIC [5] of 8 µg/mL.

“Neisseria gonorrhoeae isolate 240 (GyrA: Wild type, ParC: Wild type, mtrR: -35A Del, G45D, penA: Type I NonMosaic, ponA: Wild type, porB: G120D, A121D)” showed an MIC [1] of at most 0.015 µg/mL, an MIC [2] of at most 0.015 µg/mL and an MIC [3] of at most 0.03 µg/mL. For the same test system, the MIC [4] was 16 µg/mL and the MIC [5] was 0.125 µg/mL.

In the case of “Neisseria gonorrhoeae isolate 241 (GyrA: Wild type, ParC: Wild type, mtrR: A39T, penA: Type XXII NonMosaic, A517G, ponA: Wild type, porB: Wild type)”, the MIC [1] is reported as at most 0.015 µg/mL, the MIC [2] is reported as at most 0.015 µg/mL and the MIC [3] is reported as 0.06 µg/mL. The MIC [4] was 16 µg/mL and the MIC [5] was 0.125 µg/mL.

For “Neisseria gonorrhoeae isolate 242 (GyrA: Wild type, ParC: Wild type, mtrR: -35A Del, A39T, penA: Type XXII NonMosaic, A517G, ponA: L421P, porB: G120D)”, the MIC [1] was at most 0.015 µg/mL, the MIC [2] was at most 0.015 µg/mL and the MIC [3] was 1 µg/mL. It also gave an MIC [4] of 16 µg/mL and an MIC [5] of over 64 µg/mL.

For “Neisseria gonorrhoeae isolate 243 (GyrA: S91F, D95G, ParC: Wild type, mtrR: -35A Del, penA: Type V Nonmosaic, A517G, G543S, ponA: L421P, porB: G120N, A121D)”, the MIC [1] was at most 0.015 µg/mL, the MIC [2] was at most 0.015 µg/mL and the MIC [3] was 0.5 µg/mL. The MIC [4] was 32 µg/mL and the MIC [5] was 2 µg/mL.

Reference: the supplement of paper PMC10928670
